The values that follow come from patent US20210238308A1 (Chugai, published 2021).

What all share (experiment): SPR, Protein L capture
In general terms: SPR reads the build-up and loss of mass on a sensor chip optically.

The target in assay [1] is T1, PRYSPRY domain of human TRIM21 with N-terminal 6xHis tag (human).
T1 construct: Expressed in E. coli; also called hTRIM21; human TRIM21.PRYSPRY
T1 chain: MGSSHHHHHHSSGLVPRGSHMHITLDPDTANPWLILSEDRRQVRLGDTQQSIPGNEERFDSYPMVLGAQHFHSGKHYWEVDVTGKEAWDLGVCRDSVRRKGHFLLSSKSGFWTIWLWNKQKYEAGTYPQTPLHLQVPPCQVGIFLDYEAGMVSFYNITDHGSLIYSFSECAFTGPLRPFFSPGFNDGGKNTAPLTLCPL

Assay [2] has as its target T2, PRYSPRY domain of mouse TRIM21 with N-terminal 6xHis tag (mouse).
T2 construct: Expressed in E. coli; also called mTRIM21; mouse TRIM21.PRYSPRY
T2 chain: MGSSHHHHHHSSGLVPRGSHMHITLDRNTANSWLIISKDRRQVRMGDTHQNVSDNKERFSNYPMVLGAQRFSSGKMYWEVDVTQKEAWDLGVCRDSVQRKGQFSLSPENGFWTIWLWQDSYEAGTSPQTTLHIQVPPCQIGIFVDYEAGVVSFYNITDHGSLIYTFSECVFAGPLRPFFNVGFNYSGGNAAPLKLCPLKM

In another assay the target is T3, human FcRn (human, UniProt P55899 in part; P61769 in part, limits assumed).
T3 construct: also called hFcRn

Chain of human FcRn (P55899 24-290 limits assumed, form in doubt, chain 1 of 2): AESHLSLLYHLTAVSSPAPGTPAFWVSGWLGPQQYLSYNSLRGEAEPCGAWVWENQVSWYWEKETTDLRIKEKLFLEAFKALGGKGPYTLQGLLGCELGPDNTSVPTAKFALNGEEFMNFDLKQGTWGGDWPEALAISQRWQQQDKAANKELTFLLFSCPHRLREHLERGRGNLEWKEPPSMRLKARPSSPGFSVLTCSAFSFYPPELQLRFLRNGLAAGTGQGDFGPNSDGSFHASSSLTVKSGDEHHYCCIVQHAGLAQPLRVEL
Chain of human FcRn (P61769 21-119 limits assumed, form in doubt, chain 2 of 2, further chain): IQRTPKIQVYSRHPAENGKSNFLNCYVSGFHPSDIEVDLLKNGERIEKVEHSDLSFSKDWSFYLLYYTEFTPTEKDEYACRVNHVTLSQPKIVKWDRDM

B1: MRAH-G1d/MRAL-KT0 L309K (antibody, human IgG1, kappa)
heavy: QVQLQESGPGLVRPSQTLSLTCTVSGYSITSDHAWSWVRQPPGRGLEWIGYISYSGITTYNPSLKSRVTMLRDTSKNQFSLRLSSVTAADTAVYYCARSLARTTAMDYWGQGSLVTVSS[human IgG1 constant region with L309K (EU numbers) omitted here]
light: DIQMTQSPSSLSASVGDRVTITCRASQDISSYLNWYQQKPGKAPKLLIYYTSRLHSGVPSRFSGSGSGTDFTFTISSLQPEDIATYYCQQGNTLPYTFGQGTKVEIKRTVAAPSVFIFPPSDEQLKSGTASVVCLLNNFYPREAKVQWKVDNALQSGNSQESVTEQDSKDSTYSLSSTLTLSKADYEKHKVYACEVTHQGLSSPVTKSFNRGEC
notes: copies: 2 + 2
Turning to B1, the “hTRIM21 binding level ratio (variant/control antibody)” value in assay [1] worked out at 0.988. Also, the “mTRIM21 binding level ratio (variant/control antibody)” value in assay [2] came to 2.44. For the same molecule, the “hFcRn binding level ratio (variant/control antibody)” value in the assay with human FcRn is 0.16.

B2: MRAH-G1d/MRAL-KT0 L309R (antibody, human IgG1, kappa)
heavy: QVQLQESGPGLVRPSQTLSLTCTVSGYSITSDHAWSWVRQPPGRGLEWIGYISYSGITTYNPSLKSRVTMLRDTSKNQFSLRLSSVTAADTAVYYCARSLARTTAMDYWGQGSLVTVSS[human IgG1 constant region with L309R (EU numbers) omitted here]
light: B1 light
notes: copies: 2 + 2
With B2, the “hTRIM21 binding level ratio (variant/control antibody)” value in assay [1] was found to be 0.924. For the same molecule, the “mTRIM21 binding level ratio (variant/control antibody)” value in assay [2] worked out at 2.51. In addition, the “hFcRn binding level ratio (variant/control antibody)” value in the assay with human FcRn was found to be 0.26.

B3: MRAH-G1d/MRAL-KT0 L314T (antibody, human IgG1, kappa)
heavy: QVQLQESGPGLVRPSQTLSLTCTVSGYSITSDHAWSWVRQPPGRGLEWIGYISYSGITTYNPSLKSRVTMLRDTSKNQFSLRLSSVTAADTAVYYCARSLARTTAMDYWGQGSLVTVSS[human IgG1 constant region with L314T (EU numbers) omitted here]
light: B1 light
notes: copies: 2 + 2
As for B3, the “hTRIM21 binding level ratio (variant/control antibody)” value in assay [1] is 1.08. Besides, the “mTRIM21 binding level ratio (variant/control antibody)” value in assay [2] was found to be 2. The “hFcRn binding level ratio (variant/control antibody)” value in the assay with human FcRn is 0.35.

B4: MRAH-G1d/MRAL-KT0 L314F (antibody, human IgG1, kappa)
heavy: QVQLQESGPGLVRPSQTLSLTCTVSGYSITSDHAWSWVRQPPGRGLEWIGYISYSGITTYNPSLKSRVTMLRDTSKNQFSLRLSSVTAADTAVYYCARSLARTTAMDYWGQGSLVTVSS[human IgG1 constant region with L314F (EU numbers) omitted here]
light: B1 light
notes: copies: 2 + 2
As to B4, the binding result in assay [1] and in assay [2] was “no binding (tested: 100 nM)” in each case. In addition, the “hFcRn binding level ratio (variant/control antibody)” value in the assay with human FcRn was determined as 0.27.

B5: MRAH-G1d/MRAL-KT0 L314W (antibody, human IgG1, kappa)
heavy: QVQLQESGPGLVRPSQTLSLTCTVSGYSITSDHAWSWVRQPPGRGLEWIGYISYSGITTYNPSLKSRVTMLRDTSKNQFSLRLSSVTAADTAVYYCARSLARTTAMDYWGQGSLVTVSS[human IgG1 constant region with L314W (EU numbers) omitted here]
light: B1 light
notes: copies: 2 + 2
As to B5, the “hTRIM21 binding level ratio (variant/control antibody)” value in assay [1] amounted to 0.777. In addition, in assay [2], the “mTRIM21 binding level ratio (variant/control antibody)” value was 3.01. Further, the “hFcRn binding level ratio (variant/control antibody)” value with human FcRn was found to be 0.27.

B6: MRAH-G1d/MRAL-KT0 L309Y (antibody, human IgG1, kappa)
heavy: QVQLQESGPGLVRPSQTLSLTCTVSGYSITSDHAWSWVRQPPGRGLEWIGYISYSGITTYNPSLKSRVTMLRDTSKNQFSLRLSSVTAADTAVYYCARSLARTTAMDYWGQGSLVTVSS[human IgG1 constant region with L309Y (EU numbers) omitted here]
light: B1 light
notes: copies: 2 + 2
For the molecule B6, the “hTRIM21 binding level ratio (variant/control antibody)” value in assay [1] is 0.942. Besides, in assay [2], the “mTRIM21 binding level ratio (variant/control antibody)” value amounted to 2.27. For the same molecule, the “hFcRn binding level ratio (variant/control antibody)” value in the assay with human FcRn came out at 0.12.

B7: MRAH-G1d/MRAL-KT0 L309M (antibody, human IgG1, kappa)
heavy: QVQLQESGPGLVRPSQTLSLTCTVSGYSITSDHAWSWVRQPPGRGLEWIGYISYSGITTYNPSLKSRVTMLRDTSKNQFSLRLSSVTAADTAVYYCARSLARTTAMDYWGQGSLVTVSS[human IgG1 constant region with L309M (EU numbers) omitted here]
light: B1 light
notes: copies: 2 + 2
B7: the “hTRIM21 binding level ratio (variant/control antibody)” value in assay [1] stood at 0.831. In addition, the “mTRIM21 binding level ratio (variant/control antibody)” value in assay [2] worked out at 2.22. Also, the “hFcRn binding level ratio (variant/control antibody)” value with human FcRn is 0.88.

B8: MRAH-G1d/MRAL-KT0 L314R (antibody, human IgG1, kappa)
heavy: QVQLQESGPGLVRPSQTLSLTCTVSGYSITSDHAWSWVRQPPGRGLEWIGYISYSGITTYNPSLKSRVTMLRDTSKNQFSLRLSSVTAADTAVYYCARSLARTTAMDYWGQGSLVTVSS[human IgG1 constant region with L314R (EU numbers) omitted here]
light: B1 light
notes: copies: 2 + 2
As for B8, the “hTRIM21 binding level ratio (variant/control antibody)” value in assay [1] came out at 0.409. Moreover, the “mTRIM21 binding level ratio (variant/control antibody)” value in assay [2] was 2.37. In addition, the “hFcRn binding level ratio (variant/control antibody)” value with human FcRn was 0.01.

B9: MRAH-G1d/MRAL-KT0 L309N (antibody, human IgG1, kappa)
heavy: QVQLQESGPGLVRPSQTLSLTCTVSGYSITSDHAWSWVRQPPGRGLEWIGYISYSGITTYNPSLKSRVTMLRDTSKNQFSLRLSSVTAADTAVYYCARSLARTTAMDYWGQGSLVTVSS[human IgG1 constant region with L309N (EU numbers) omitted here]
light: B1 light
notes: copies: 2 + 2
For B9, in assay [1], the “hTRIM21 binding level ratio (variant/control antibody)” value was found to be 0.963. Besides, the “mTRIM21 binding level ratio (variant/control antibody)” value in assay [2] turned out to be 2.38. Moreover, in the assay with human FcRn, the “hFcRn binding level ratio (variant/control antibody)” value is 0.32.

B10: MRAH-G1d/MRAL-KT0 L314K (antibody, human IgG1, kappa)
heavy: QVQLQESGPGLVRPSQTLSLTCTVSGYSITSDHAWSWVRQPPGRGLEWIGYISYSGITTYNPSLKSRVTMLRDTSKNQFSLRLSSVTAADTAVYYCARSLARTTAMDYWGQGSLVTVSS[human IgG1 constant region with L314K (EU numbers) omitted here]
light: B1 light
notes: copies: 2 + 2
Consider B10, for which the binding result in assay [1] and in assay [2] was “no binding (tested: 100 nM)” throughout. Besides, the “hFcRn binding level ratio (variant/control antibody)” value in the assay with human FcRn came out at 0.01.

B11: MRAH-G1d/MRAL-KT0 L309W (antibody, human IgG1, kappa)
heavy: QVQLQESGPGLVRPSQTLSLTCTVSGYSITSDHAWSWVRQPPGRGLEWIGYISYSGITTYNPSLKSRVTMLRDTSKNQFSLRLSSVTAADTAVYYCARSLARTTAMDYWGQGSLVTVSS[human IgG1 constant region with L309W (EU numbers) omitted here]
light: B1 light
notes: copies: 2 + 2
As for B11, the “hTRIM21 binding level ratio (variant/control antibody)” value in assay [1] amounted to 0.907. In addition, the “mTRIM21 binding level ratio (variant/control antibody)” value in assay [2] was found to be 2.19. The “hFcRn binding level ratio (variant/control antibody)” value in the assay with human FcRn was 1.05.

B12: MRAH-G1d/MRAL-KT0 L432F (antibody, human IgG1, kappa)
heavy: QVQLQESGPGLVRPSQTLSLTCTVSGYSITSDHAWSWVRQPPGRGLEWIGYISYSGITTYNPSLKSRVTMLRDTSKNQFSLRLSSVTAADTAVYYCARSLARTTAMDYWGQGSLVTVSS[human IgG1 constant region with L432F (EU numbers) omitted here]
light: B1 light
notes: copies: 2 + 2
As to B12, in assay [1], the “hTRIM21 binding level ratio (variant/control antibody)” value turned out to be 0.765. The “mTRIM21 binding level ratio (variant/control antibody)” value in assay [2] amounted to 1.02. In addition, the “hFcRn binding level ratio (variant/control antibody)” value in the assay with human FcRn worked out at 0.65.
